Test results published in PubChem BioAssay AID445 (National Center for Advancing Translational Sciences (NCATS), 2006).
The campaign covered roughly 110,000 compounds. About 40 (0.04%) were called active. The shares of active, inactive and inconclusive entries below differ from those in the screen. The call rests on the fitted dose curve; in most records, active means well fitted curve in the direction sought with a large enough effect in the signal ratio (not every such curve was filed as active); inconclusive means small, poorly fitted or top-dose-only effect, or a change in a side signal; inactive means flat fitted curve, though single readings scatter; the % refers to the signal ratio. Where the call is inconclusive, the potency comes from a doubtful curve fit.

Assay: IkB Signaling;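 on IkBa stabilization activation: 0% = basal untreated cells and 100% = reference inhibitor full response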
Conditions: ABC-DLBCL IkBa-CBG/CBR dual luciferase ratio (green luciferase fused to IkBa over red control in OCI-Ly3 lymphoma cells), 4 h; IkBa stabilization activation: at 57.1 µM (top of the series), scaled: untreated 0%, proteasome inhibitor 100% unless noted
Method in brief: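 Curves were fitted separately to fusion (green), unfused (red) and ratio luminescence, then classed by r2, magnitude and activity. Cells: OCI-Ly3, 4 h compound plus doxycycline at 37C; 10 uM MG-132 defined full response.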
Potency means the concentration at half of the fitted maximal effect.

Q: With `O=C(Cn1nc(N2CCN(c3ccccc3)CC2)ccc1=O)Nc1ccc(F)cc1F` as the compound, how does the IkBa stabilization activation read?
A: inconclusive: 3.54% [signal inhibitor]

Q: For `COc1cc(C2c3c(oc4ccc(C)cc4c3=O)C(=O)N2c2cc(C)ccn2)cc(OC)c1OC` (stereo unspecified), which “IkBa stabilization activation” value is on record?
A: inactive: 1.13%

Q: Which IkBa stabilization activation does the source give for `O=C(CCCn1c(=O)c2ccccc2n(CC(=O)Nc2cccc(C(F)(F)F)c2)c1=O)NCc1ccc2c(c1)OCO2` here?
A: inconclusive: 6.59% [signal inhibitor]

Q: Which “IkBa stabilization activation” value does the source give for `CN[C@]1(C)[C@@H]2CC[C@@H](C2)C1(C)C` here?
A: inactive: 0.94%

Q: With `COCCn1c(SCC(=O)c2ccc(C)cc2C)nc2cc(C(=O)NC3CCCC3)ccc2c1=O` as the compound, how does the “IkBa stabilization activation” value read?
A: inactive: -0.281%

Q: For `COC(=O)c1ccc(CSc2ncnc3ccccc23)o1`, which IkBa stabilization activation is on record?
A: inconclusive: -1.81% [signal inhibitor]

Q: With `CN(C)C(=O)c1ccc(-c2ccc3ncnc(NCc4ccccc4)c3c2)cc1` as the compound, how does the IkBa stabilization activation read?
A: inactive: -0.703% [at 11.4 µM, scaled: untreated 0%, proteasome inhibitor 100%]

Q: For `CCOc1ccc(N(CC)S(=O)(=O)N2CCCC(C(=O)Nc3cc(Cl)ccc3C)C2)cc1` (stereo unspecified), which IkBa stabilization activation is on record?
A: inconclusive: 2.04% [signal inhibitor]

Q: For `O=C(c1noc2c1CCCCC2)N1CCN(c2cccc(C(F)(F)F)c2)CC1`, which “IkBa stabilization activation” value is on record?
A: inactive: -0.951%

Q: For `Cc1ccc(Cl)cc1N1CCN(C(=O)C2CCN(S(=O)(=O)c3cccc4nonc34)CC2)CC1`, which IkBa stabilization activation is on record?
A: inconclusive: 2.3% [signal inhibitor]

Q: Which “IkBa stabilization activation” value does the source give for `Cc1ccccc1OC(=O)CSc1nnc(-c2ccc3c(c2)OCO3)o1` here?
A: inactive: -2.33%

Q: With `COC(=O)c1cc(NC(=O)c2nn(C)c3c2CSc2ccccc2-3)cc(C(=O)OC)c1` as the compound, how does the “IkBa stabilization activation” value read?
A: inactive: -0.839%

Q: Which IkBa stabilization activation does the source give for `CN(Cc1ccc(F)cc1)S(=O)(=O)c1nnc(NC(=O)c2ccccc2Br)s1` here?
A: inconclusive: 1.54% [signal inhibitor]

Q: For `Cc1ccc(-n2nc3c(=O)n(CCCC(=O)NCc4ccccc4C)nc(C)c3c2C)cc1`, which IkBa stabilization activation is on record?
A: inconclusive: 3.75% [signal inhibitor]

Q: Which “IkBa stabilization activation” value does the source give for `Cc1ccc([N+](=O)[O-])cc1S(=O)(=O)N1CCn2cccc2C1c1ccccc1F` (stereo unspecified) here?
A: inactive: 2.96%

Q: Which IkBa stabilization activation does the source give for `CC(C)C(=O)N1CCC(CN=Cc2c(O)n(C3CCCCC3)c(=O)n(C3CCCCC3)c2=O)CC1` here?
A: inconclusive: -5.27% [signal inhibitor]

Q: With `Cc1cc(=S)[nH]c2ccccc12` as the compound, how does the “IkBa stabilization activation” value read?
A: inactive: -1.15%

Q: With `CCOc1cccc(C2c3[nH]c4ccccc4c3CCN2C(=O)c2ccccc2F)c1` (stereo unspecified) as the compound, how does the IkBa stabilization activation read?
A: inconclusive: -0.503% [signal inhibitor]

Q: For `CCC(Sc1nnc(C)n2c1cc1sccc12)C(=O)Nc1ccccc1F` (stereo unspecified), which IkBa stabilization activation is on record?
A: inconclusive: 5.67% [signal inhibitor]

Q: With `CCOC(=O)c1c(SCC(=O)Nc2nc3ccccc3s2)nc(=O)[nH]c1C` as the compound, how does the Potency read?
A: inconclusive: 3.98 µM [rising, partial curve]

Q: Which IkBa stabilization activation does the source give for `CCCCC(=O)Oc1ccc2oc(-c3ccc(OC)cc3)cc(=O)c2c1` here?
A: inconclusive: 4.22% [signal inhibitor]

Q: Which “IkBa stabilization activation” value does the source give for `CCCCCCCCCCCCCCCCCC(=O)O[C@H](CC(=O)O)C[N+](C)(C)C` here?
A: inactive: -8.1%

Q: For `CCn1c(SCC(=O)Nc2ccc(N3CCOCC3)c(Cl)c2)nnc1-c1ccc(N)cc1`, which IkBa stabilization activation is on record?
A: inconclusive: -0.829% [signal inhibitor]

Q: With `C=CCn1c(SCC(=O)c2ccc(O)c(O)c2)nnc1-c1ccccc1OC` as the compound, how does the IkBa stabilization activation read?
A: inconclusive: 9.18% [signal inhibitor]

Q: Which “IkBa stabilization activation” value does the source give for `CCCCCc1c(O)c2ccccc2[nH]c1=O` here?
A: inactive: 0.994%

Q: With `O=C(Nc1ccccc1C(=O)OCc1cc(=O)n2ccsc2n1)c1ccc(Cl)cc1` as the compound, how does the Potency read?
A: inconclusive: 15.8 µM [signal inhibitor]

Q: Which “IkBa stabilization activation” value does the source give for `CCCc1nc(SC2CCCC2)c2c(=O)n(C)c(=O)n(C)c2n1` here?
A: inactive: 0.75%

Q: With `O=C(Nc1ccncc1)Nc1ccccn1` as the compound, how does the IkBa stabilization activation read?
A: inconclusive: 2.43% [signal inhibitor]

Q: Which IkBa stabilization activation does the source give for `COc1ccccc1CNC(=O)CCNS(=O)(=O)c1ccc2c(c1)CCCC(=O)N2` here?
A: inconclusive: 2.12% [signal inhibitor]

Q: With `Cc1ccc(Cl)cc1NC(=O)Nc1nnc(N2CCCC(C)C2)s1` (stereo unspecified) as the compound, how does the IkBa stabilization activation read?
A: inconclusive: 2.34% [signal inhibitor]

Q: With `Cc1cc(C)n2c(Nc3ccccc3)c(-c3ccccc3)nc2n1` as the compound, how does the IkBa stabilization activation read?
A: inconclusive: 5.07% [signal inhibitor]

Q: Which IkBa stabilization activation does the source give for `CCn1c(=O)cc(OCC(=O)N2CCN(c3ccccc3OC)CC2)c2ccccc21` here?
A: inconclusive: 6.87% [signal inhibitor]

Q: For `COc1cccc(Nc2ncc3nc(-c4ccccc4)c(=O)n(Cc4cccs4)c3n2)c1`, which IkBa stabilization activation is on record?
A: inactive: -1.9% [at 11.4 µM, scaled: untreated 0%, proteasome inhibitor 100%]

Q: Which IkBa stabilization activation does the source give for `CCN(CC)S(=O)(=O)c1csc(C(=O)NCc2ccccc2)c1` here?
A: inconclusive: 5.06% [signal inhibitor]

Q: For `Cc1cccc(Cn2nnc(C(=O)Nc3cc(C)ccc3C)c2N)c1`, which IkBa stabilization activation is on record?
A: inconclusive: -0.107% [signal inhibitor]

Q: With `COc1cccc(NC(=O)C2CCN(c3nc4ccccc4nc3C(F)(F)F)CC2)c1` as the compound, how does the IkBa stabilization activation read?
A: inconclusive: 1.37% [signal inhibitor]

Q: For `O=C1C=CC(=O)c2c1ccc1c2ccc2ccccc21`, which Potency is on record?
A: inconclusive: 12.6 µM [rising, partial curve]

Q: For `Nc1nc2ccc(N3CCOCC3)cc2s1`, which “IkBa stabilization activation” value is on record?
A: inactive: -2.29%

Q: For `Cc1cc(NC(=O)CC2CCCC2)n(-c2nc3ccccc3[nH]2)n1`, which Potency is on record?
A: inconclusive: 31.6 µM [rising, partial curve]

Q: For `Nc1c(S(=O)(=O)c2cccc(Cl)c2)c2nc3ccccc3nc2n1CCN1CCOCC1`, which “IkBa stabilization activation” value is on record?
A: inactive: -0.652%

Q: For `CSCc1nnc(NC(=O)c2ccc(S(=O)(=O)N(CC(C)C)CC(C)C)cc2)o1`, which “IkBa stabilization activation” value is on record?
A: inactive: -0.435%

Q: With `Cc1ccc(C(C)C)c(OCCCn2c(=O)oc3ccccc32)c1` as the compound, how does the “IkBa stabilization activation” value read?
A: inactive: -0.0201%

Q: Which Potency does the source give for `O=C(/C=N/O)Nc1ccc(F)cc1` here?
A: inconclusive: 6.31 µM [signal inhibitor, partial curve]

Q: For `COc1ccccc1NC(=O)c1ccc2oc(=O)c(S(=O)(=O)c3ccccc3)cc2c1`, which Potency is on record?
A: inconclusive: 5.01 µM [rising, single point]

Q: For `Cc1ccccc1CNC(=O)c1cc2cc(S(=O)(=O)N3CCCCC3)ccc2n1C`, which “IkBa stabilization activation” value is on record?
A: inactive: 0.00848%

Q: With `COc1ccc(-c2cc(C(=O)OCC(=O)N3CCCC3)c3ccccc3n2)cc1` as the compound, how does the IkBa stabilization activation read?
A: inconclusive: 1.9% [signal inhibitor]

Q: For `CCC(=O)Nc1ccc2c(c1)ncn2-c1ccccc1OC`, which IkBa stabilization activation is on record?
A: inconclusive: 16.6% [signal inhibitor]

Q: With `CN(C)c1ccc(Cc2ccc(N(C)C)cc2)cc1` as the compound, how does the “IkBa stabilization activation” value read?
A: inactive: 5.25%

Q: For `O=C(CN1C=NS(=O)(=O)c2ccc(C(F)(F)F)cc21)Nc1cccc(C(F)(F)F)c1`, which IkBa stabilization activation is on record?
A: inconclusive: 2.55% [signal inhibitor]

Q: With `COc1ccc(Nc2c3c(nc4ccc(NC(=O)/C=C/c5cccc(OC)c5OC)cc24)CCCC3)cc1OC` as the compound, how does the IkBa stabilization activation read?
A: inconclusive: 0.213% [signal inhibitor]

Q: Which IkBa stabilization activation does the source give for `CCOC(=O)c1cccc(NC(=O)CSc2nc3cccnc3n2C)c1` here?
A: inconclusive: 0.0328% [signal inhibitor]

Q: For `O=S(=O)(c1ccc(Cl)cc1)c1nc(-c2ccccc2)oc1N1CCN(c2ccccc2)CC1`, which “IkBa stabilization activation” value is on record?
A: inactive: -1.68%

Q: With `Nc1cc(Cl)c([N+](=O)[O-])cc1O` as the compound, how does the “IkBa stabilization activation” value read?
A: inactive: 0.18%

Q: With `CCOc1ccc(C2CC(=O)c3c([nH]c(C(=O)OC4CCC(C)CC4)c3C)C2)cc1` (stereo unspecified) as the compound, how does the IkBa stabilization activation read?
A: inconclusive: -2.14% [signal inhibitor]

Q: For `COC(=O)c1cc(=O)n(Cc2ccco2)c(=Nc2ccc(F)c(Cl)c2)s1`, which IkBa stabilization activation is on record?
A: inconclusive: 1.76% [signal inhibitor]

Q: With `CCn1c(/C(C#N)=C/c2ccccc2Cl)nc2ccccc21` as the compound, how does the IkBa stabilization activation read?
A: inconclusive: -5% [signal inhibitor]

Q: With `CCc1cccc(NC(=O)CSc2nc3ccsc3c(=O)n2CC)c1` as the compound, how does the IkBa stabilization activation read?
A: inconclusive: -4.54% [signal inhibitor]

Q: With `CCN1CCN(Cc2ccc(NC(=O)Nc3ccc(OC)cc3)cc2)CC1` as the compound, how does the “IkBa stabilization activation” value read?
A: inactive: 0.868%

Q: With `Cc1ccc(CN(Cc2cccn2-c2nnc(N3CCCC3=O)s2)C(=O)Nc2ccccc2C(F)(F)F)cc1` as the compound, how does the IkBa stabilization activation read?
A: inconclusive: 0.616% [signal inhibitor]

Q: With `Cc1cc(C)c2sc(NC(=O)c3ccc(S(=O)(=O)N4CCOCC4)cc3)nc2c1` as the compound, how does the IkBa stabilization activation read?
A: inconclusive: 1.17% [signal inhibitor]

Q: Which “IkBa stabilization activation” value does the source give for `COc1ccc(C(=O)NCC(c2ccc(N(C)C)cc2)N2CCc3ccccc32)cc1` (stereo unspecified) here?
A: inactive: 3.42%

Q: Which “IkBa stabilization activation” value does the source give for `Cn1c(=O)n(C)c2cc(N3CCOCC3)c(NC(=O)c3c(F)cccc3F)cc21` here?
A: inactive: -5.28%

Q: With `O=C(NC1CC(=O)N(c2cccc(F)c2)C1)C(c1ccccc1)c1ccccc1` (stereo unspecified) as the compound, how does the IkBa stabilization activation read?
A: inconclusive: 2.27% [signal inhibitor]

Q: With `CCC1C(=O)OCC1Cc1cncn1C` (stereo unspecified) as the compound, how does the “IkBa stabilization activation” value read?
A: inactive: -0.0754%

Q: With `Cn1c(-c2c(N)n(C3CCCC3)c3nc4ccccc4nc23)nc2ccccc21` as the compound, how does the IkBa stabilization activation read?
A: inconclusive: 18.1% [signal inhibitor]

Q: With `C=CCc1ccc(OCc2ccc(C(=O)Nc3ccc(NC(C)=O)cc3)o2)c(OC)c1` as the compound, how does the IkBa stabilization activation read?
A: inconclusive: 17.8% [signal inhibitor]

Q: For `CCCC1(c2ccccc2)NC(=O)N(CC(=O)c2[nH]c(C)c(C(=O)OCC)c2C)C1=O` (stereo unspecified), which IkBa stabilization activation is on record?
A: inconclusive: 1.75% [signal inhibitor]

Q: Which “IkBa stabilization activation” value does the source give for `COc1ccc2c(c1)c(=O)oc1cc(OCC(=O)N3CCC(C)CC3)ccc12` here?
A: inactive: 0.583%

Q: For `COc1cccc(NC(=O)Cn2cc(C(=O)c3ccc(F)cc3)c(=O)c3cc(OC)ccc32)c1`, which IkBa stabilization activation is on record?
A: inconclusive: 1.79% [signal inhibitor]

Q: For `C[C@@]12CC[C@@H]3[C@H](CCC4=CC(=O)CC[C@]43C)[C@@H]1CC[C@@H]2C(=O)COS(=O)(=O)c1ccc(Br)cc1`, which IkBa stabilization activation is on record?
A: inactive: 0.819% [at 11.4 µM, scaled: untreated 0%, proteasome inhibitor 100%]

Q: With `Cc1cccc(Cn2cnc3c(oc4ccccc43)c2=O)c1` as the compound, how does the IkBa stabilization activation read?
A: inconclusive: 1.05% [signal inhibitor]
